Results taken from PubChem BioAssay AID588342 (National Center for Advancing Translational Sciences (NCATS), 2011).
The campaign covered roughly 360,000 compounds. About 25,000 (6.9%) were called active. The shares of active, inactive and inconclusive entries below differ from those in the screen. Calls come from the whole dose curve; as a rule, active = well fitted inhibition curve with a large enough effect; inconclusive = small, poorly fitted or top-dose-only effect; inactive = flat fitted curve, though single readings scatter. A potency beside an inconclusive call is a rough fit, not a confirmed value.
Note: nearly all actives have a fitted effect of over 55% in size.
Potency is the fitted concentration of half-maximal effect; tags give direction and shape of the fitted curve.

The molecules below were run against Luciferin 4-monooxygenase (Photinus pyralis) (UniProt P08659) (assay: qHTS profiling assay for firefly luciferase inhibitor/activator using purifed enzyme and Km concentrations of substrates (counterscreen for miR-21 project)). Settings: purified FLuc, luminescence inhibition; series mostly up to 57.5 µM.
UniProt P08659, sequence (P08659 whole entry, looked up): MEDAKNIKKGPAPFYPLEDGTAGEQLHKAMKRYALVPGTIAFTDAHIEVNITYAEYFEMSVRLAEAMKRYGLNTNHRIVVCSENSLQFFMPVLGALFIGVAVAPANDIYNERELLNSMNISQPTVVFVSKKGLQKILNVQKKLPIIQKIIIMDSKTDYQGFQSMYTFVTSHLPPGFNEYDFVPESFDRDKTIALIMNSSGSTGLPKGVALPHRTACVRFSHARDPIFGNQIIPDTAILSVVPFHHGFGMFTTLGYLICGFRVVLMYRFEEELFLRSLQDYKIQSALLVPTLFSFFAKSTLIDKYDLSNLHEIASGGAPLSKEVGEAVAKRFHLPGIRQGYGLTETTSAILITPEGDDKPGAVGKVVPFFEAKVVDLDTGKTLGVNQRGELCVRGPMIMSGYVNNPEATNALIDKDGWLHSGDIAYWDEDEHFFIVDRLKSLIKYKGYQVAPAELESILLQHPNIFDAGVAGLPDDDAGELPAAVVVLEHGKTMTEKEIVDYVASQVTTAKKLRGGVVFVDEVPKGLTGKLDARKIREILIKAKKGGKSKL
Procedure, shortened: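 Biochemical qHTS of compounds, final roughly 60 µM downward over six points, against 10 nM purified firefly luciferase using Km concentrations of substrates (10 uM D-luciferin, 10 uM ATP) in Tris acetate pH 7.5 buffer; luminescence output.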
For CCOC(=O)c1ccc(Cl)c(NC(=O)c2cccnc2)c1, the Potency was “inactive”.
CCOC(=O)c1ccc(N2NC(=O)/C(=C/c3ccc(OC(=O)c4ccco4)c(OC)c3)C2=O)cc1 was tested, and the Potency was inconclusive: 16.9 µM [inhibitor, partial curve, poor fit].
In the case of CCOC(=O)Cc1ccc(NC(=O)c2ccc([N+](=O)[O-])cc2)cc1, the Potency is reported as inconclusive: 4.78 µM [inhibitor, full curve].
For CC(C)COC(=O)n1c(SCC(=O)N(C)C)nc2ccccc21, the Potency was inconclusive: 23.9 µM [inhibitor, partial curve, poor fit].
For COc1ccc(C(=O)Nc2ccc3cn[nH]c3c2)c(OC)c1, the Potency was active: 6.01 µM.
In the case of Clc1ccc(CSc2ncccn2)cc1, the Potency is reported as inconclusive: 21.3 µM [inhibitor, single point].
Cc1ccc(-c2nn3c(=O)cc(CN4CCN(C(=O)Nc5cccc(C(F)(F)F)c5)CC4)nc3s2)cc1 was tested, and the Potency was “inactive”.
For COc1ccccc1/C=C1\SC(=S)N(CCC(=O)Nc2ccc(C(=O)O)c(O)c2)C1=O, the Potency was active: 6.01 µM.
With Cn1c(=O)c(C(=O)NCCCc2ccccc2)c(O)c2ccccc21 the Potency was inconclusive: 33.8 µM [inhibitor, partial curve, poor fit].
With O=C(Oc1ccc2c(=O)c(Cl)coc2c1)c1cccnc1 the Potency was inconclusive: 15.1 µM [inhibitor, partial curve, poor fit].
O=C(Nc1nc2c(F)cccc2s1)c1ccc([N+](=O)[O-])o1 was tested, and the Potency was inconclusive: 13.5 µM [inhibitor, partial curve].
With Cc1ccc2c(CN(C)Cc3cccc(Cl)c3)cc(=O)oc2c1C the Potency was inconclusive: 8.49 µM [inhibitor, partial curve, poor fit].
C/C(=N\NC(=O)COc1cccc(Br)c1)c1ccc2c(c1)OCCO2 was tested, and the Potency was inconclusive: 37.9 µM [inhibitor, partial curve, poor fit].
Fc1ccc2[nH]c3c(N4CCSCC4)ncnc3c2c1 was tested, and the Potency was inconclusive: 23.9 µM [inhibitor, partial curve, poor fit].
With O=C(NN1C(=O)c2ccccc2C1=O)c1ccncc1 the Potency was “inactive”.
In the case of O=C(CN1C(=O)COc2ccc(S(=O)(=O)N3CCCCCC3)cc21)N1CCN(c2ccc(F)cc2)CC1, the Potency is reported as “inactive”.
For Cc1cn(C)c(CC(=O)Nc2cccc(C#N)c2)c1C(=O)O, the Potency was inconclusive: 13.5 µM [inhibitor, partial curve, poor fit].
For O=C(c1cccc([N+](=O)[O-])c1)c1cc2ccccc2o1, the Potency was inconclusive: 13.5 µM [inhibitor, partial curve].
